# According to the supplement of paper PMC3334620:
# In all, about 33,000 sequences were measured (“E-score (-0.5 to 0.5)”: median about -0.035, highest 2% from about 0.34 on). The list shows a part of the results.
# Molecular target: T1, Mot3 (UniProt P54785)
# T1 sequence: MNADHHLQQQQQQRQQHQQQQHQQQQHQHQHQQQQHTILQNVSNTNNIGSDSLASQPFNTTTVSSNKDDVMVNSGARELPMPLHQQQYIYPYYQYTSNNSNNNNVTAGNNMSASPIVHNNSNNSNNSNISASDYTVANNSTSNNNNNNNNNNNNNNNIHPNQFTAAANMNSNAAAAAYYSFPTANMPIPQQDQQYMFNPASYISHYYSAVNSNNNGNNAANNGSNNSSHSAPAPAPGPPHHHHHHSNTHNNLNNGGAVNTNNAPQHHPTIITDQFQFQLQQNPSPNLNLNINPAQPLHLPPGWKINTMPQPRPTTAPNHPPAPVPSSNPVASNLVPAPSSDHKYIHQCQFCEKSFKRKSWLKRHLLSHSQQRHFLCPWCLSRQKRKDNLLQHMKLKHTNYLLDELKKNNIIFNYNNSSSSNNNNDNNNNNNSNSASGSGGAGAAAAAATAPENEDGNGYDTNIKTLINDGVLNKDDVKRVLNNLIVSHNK
# Assay: PBM E-score (8-mer binding enrichment) (E-score (-0.5 to 0.5)); higher = stronger / more preferred TF binding; most listed sequences are background and not binding sites
# Settings: protein concentration: 200 nM; construct: GST-full length
# Summary of the method: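 The E-score, a modified Wilcoxon-Mann-Whitney statistic, was computed by the Universal PBM Analysis Suite for every ungapped eight-base word pooled with its reverse complement. Scans behind it were normalised with masliner after bound GST-tagged yeast transcription factors were detected with fluorescent anti-GST. The proteins, at about 100-200 nM, had been applied to universal all-10-mer Agilent arrays made double-stranded by primer extension.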
row,Sequence,PBM E-score
1,AGATCTCA,-0.0113
2,GCTCGATA,-0.148
3,CATCGACG,-0.168
4,AGGCATTA,0.297
5,GGCTGTAA,0.0664
6,GTAGTGAC,0.0296
7,CGCATCCA,-0.106
8,AAGGGTCG,-0.0478
9,ACTAGCCG,-0.133
10,CCTCTGCA,-0.113
11,CAGCCCTC,-0.278
12,AGGCGGTG,-0.0519
13,CTATGGCA,-0.125
14,TCATGCCA,0.0828
15,TCGTAAAA,0.217
16,CCTACGAC,0.0236
17,CGCTGAGC,-0.161
18,CCAACCAA,-0.172
19,ACACGGCC,0.188
20,ACTAACTA,-0.124
21,CCGGAGGA,-0.351
22,ATGGGCTA,0.0399
23,AAGTCTCG,-0.0604
24,CAAAAGTA,0.122
25,CCGCGGGA,-0.23

row,Sequence,PBM E-score
1,ACCGTAAG,-0.0964
2,GACCGAAA,-0.12
3,GGTTTTTA,0.198
4,AGTTGGGC,-0.177
5,CCGTTGAG,-0.213
6,ATGGCACA,-0.078
7,CTCTCCAA,-0.133
8,TCTTTTAA,0.0191
9,TCAGCGAA,-0.121
10,CAGCTTCA,-0.0237
11,AGATTATA,-0.0825
12,ATTCTCCG,-0.174
13,AAACACGA,0.292
14,ATTTTGTA,0.192
15,CACACGAG,0.168
16,CGTAGCGA,-0.285
17,ACTCGAAT,0.00379
18,GAGTCCAC,-0.262
19,CTAACGCA,0.0496
20,CCGCAAGG,-0.128
21,ATTGCGGA,-0.112
22,AAAACTGA,-0.1
23,GATGGCAC,-0.154
24,AGTCTGAC,-0.277
25,CACGATTA,0.163

row,Sequence,PBM E-score
1,ATCCTTCG,-0.176
2,GGTGGGTA,-0.0735
3,CGCGACCA,-0.00815
4,CGAGAAAA,-0.0261
5,CTAATCGC,0.00549
6,CAGGGCTC,-0.354
7,CACAAAAG,0.0956
8,AGTAATAT,0.115
9,CTCAGACC,-0.17
10,GTGAGGTA,-0.0654
11,CAGCCACC,-0.184
12,AAATGGAA,-0.183
13,ATTTAATA,0.147
14,AAGACGCT,-0.275
15,TATGAACA,0.192
16,GCGAGGCA,0.148
17,TTATCAAA,0.0771
18,GCGCTACC,-0.202
19,AAGAAGCA,0.028
20,ATGGAGAA,-0.0954
21,AGTCCGAC,-0.0975
22,AGAACGGA,-0.135
23,AGCGTTAC,-0.06
24,GGAAATAC,0.141
25,CTACAGTA,0.0852

row,Sequence,PBM E-score
1,CCTCGACA,0.0655
2,CTGTCAGA,-0.0883
3,GACAATAC,0.108
4,CTGCAATC,-0.0301
5,TAAGATGA,-0.00172
6,ATCCGTAG,-0.299
7,ATTAGAGG,-0.104
8,CCCAGGTC,-0.162
9,ATTCTTAC,0.148
10,CCTGCGCC,-0.0195
11,ACTCAAAA,-0.0489
12,CACCTCGA,-0.0714
13,AGATGGAT,-0.271
14,AGTCGTTC,0.0516
15,CATCTCTC,-0.127
16,AAAACTCG,0.206
17,TCACTGAA,-0.0937
18,ACGCAACG,0.211
19,CCCCAGAC,-0.352
20,CACCGTAA,0.0377
21,ATATAGAC,0.136
22,AAACCGGG,-0.212
23,CCAACGCC,-0.00629
24,ATTGCAAC,-0.102
25,TCATTCGA,-0.0243

row,Sequence,PBM E-score
1,TAGATAGA,0.0428
2,CAAGCTGG,-0.192
3,AGAAAGAA,-0.0361
4,GCTGCTGA,0.0538
5,AGGTGCGA,-0.188
6,AACCCCCG,-0.28
7,ATTTTTCC,0.0662
8,CTGGAAGA,-0.184
9,AACCCCAG,-0.0936
10,AACTGCGA,-0.314
11,AAAGGCCT,-0.0542
12,GCAGCGTA,-0.066
13,AAAGAACC,0.0629
14,CTGACCGA,-0.248
15,GCTCTCCA,-0.122
16,AACTTTCA,0.0939
17,AGGGATAG,-0.317
18,AGATCGGC,-0.214
19,CTAGTTCA,0.0656
20,GCGCGTAA,0.34
21,ATTTAGAC,0.0428
22,AGATGTAG,0.0828
23,CTTTTTGC,0.178
24,AGTCACAC,0.116
25,TACTGATA,0.042

row,Sequence,PBM E-score
1,CCGGGCTC,-0.278
2,ACGCCAAG,-0.0211
3,AATAAGCA,0.00176
4,GAACGAGC,0.103
5,AGGGTCGC,-0.165
6,CGATTCAC,-0.0992
7,AAGAAGCG,-0.048
8,AGTCTTGA,-0.109
9,AACTGGAC,-0.181
10,ATACGCAA,0.205
11,ACTGGGGA,-0.149
12,AGGACACG,0.071
13,AATTATCA,0.278
14,GAGTGACA,0.0201
15,GAGGACTA,-0.199
16,ATCTACCA,0.0595
17,ACCGCCTG,-0.018
18,CACGAACG,-0.00928
19,CGCTGGAG,-0.24
20,CTAACGTC,-0.00929
21,ATGCCTAA,0.278
22,GCGGGAAC,-0.21
23,GACTGCGA,-0.12
24,AACCTCCA,-0.259
25,GATGGTGA,-0.0599

row,Sequence,PBM E-score
1,CCCACCAC,-0.089
2,ACGGACCG,-0.224
3,GAACTTGA,0.095
4,GGTATTTA,-0.0421
5,AAAAGAAG,0.177
6,ATGCTTTC,0.133
7,CTAACCGC,-0.164
8,CCGGAGAG,-0.231
9,GATGATCC,-0.242
10,CTATAGAA,-0.0451
11,AGGTGGTG,-0.00552
12,ACTCGGGC,-0.0831
13,AGCACATA,-0.0205
14,ATGATGTA,0.226
15,GATGCACA,-0.142
16,GTTGTCGA,0.0121
17,ATTTCCCC,-0.115
18,ACCCGAGT,-0.161
19,ATAAGAAA,0.206
20,ACTAACCG,0.0779
21,TACCTACA,0.381
22,AACTTTCC,0.0113
